Test results reported in PMC12040169 (PLOS Biology, 2025).
Some of the results follow.

Test system: T1, C. trachomatis L2/434/Bu expressing GFP (CTL2-GFP)
T1 construct: L2/434/Bu GFP intracellular growth in HeLa cells
Parameters: species or system HeLa; C. trachomatis total inclusion area by high-content imaging, normalised to DMSO
Conditions: total inclusion area; 28.5 h, 10 µM; inhibitor
How it was run: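 Bulk GFP and resorufin signals were read first. Wells were then fixed, stained with Hoechst and imaged to detect GFP inclusions and host nuclei. MICs followed the previously described calculation.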

SMILES | % of control remaining
COc1cccc(N(CC(=O)Nc2ccccc2Cl)S(=O)(=O)c2ccc(C)cc2)c1 [CBK263791] | 104.921
Nc1nc2cc3c(cc2[nH]1)OCO3 [CBK023191] | 91.6783
O=C(COc1ccc(Br)cc1C(=O)O)Nc1ccc(F)cc1 [CBK286671] | 81.1776
COC(=O)c1c(NC(=O)C2CC=CCC2C(=O)O)sc2c1CCC(C)C2 (stereo not drawn) [CBK262655] | 95.8654
c1coc(CN2CCC(c3ccc4c(c3)OCO4)CC2)c1 [CBK284001] | 52.8105
C[C@H](Oc1cncc(N2CCNCC2)n1)c1ccccc1Cl [CBK172341G] | 90.5195
Cc1nc(C)c(C(=O)N2CCCc3ccccc32)s1 [CBK200345] | 104.346
Cc1cnc(CNS(=O)(=O)c2ccc(F)cc2)cn1 [CBK050489] | 52.2022
CN(C)S(=O)(=O)c1cccc(C(=O)NCc2ccco2)c1 [CBK270135] | 125.869
CC(C)C(=O)N1C[C@H]2NC(=O)c3ccccc3C(=O)[C@@]2(C)C1 [CBK281658] | 77.7615
COc1ccc(CN(C)CCN(C)C)c(O)c1 [CBK261915] | 88.8992
N=C(N)SCc1ncccc1O [CBK278318C] | 91.9413
O=C(Nc1ccc(N2CCNCC2)c2ccccc12)c1coc2c1C(=O)CCC2 [CBK038946T] | 56.1916
Cc1ccc(Cn2nc(C)c(NC(=O)c3nc4ncccn4n3)c2C)cc1 [CBK268912] | 85.5097
Brc1ccc(CN2CCN3CCCC3C2C2CCCCC2)o1 (stereo not drawn) [CBK021456] | 43.0468
Nc1nonc1C(=O)NCCNCc1cccs1 [CBK267305] | 94.8762
COc1ccc(-c2cc(C(=O)NCc3nc4ccccc4[nH]3)cnc2-c2ccccc2)cn1 [CBK037579] | 157.117
CC1CCCCC1NC(=O)CSc1nnc(CN2CCOCC2)n1C (stereo not drawn) [CBK266662] | 117.014
COc1cccc(COc2nccnc2/C=C/c2ccccc2)c1OC [CBK106888] | 123.116
CCN(CC)C(=O)C1CCCN(C(=O)c2ccc3c(c2)COC(C2CCN(C(=O)OC(C)(C)C)CC2)O3)C1 (stereo not drawn) [CBK173279] | 97.1129
O=C1N[C@@H]2CCN(S(=O)(=O)c3cccs3)[C@@H]2C(=O)N1c1ccc(F)cc1 [CBK289326] | 100.546
COc1ccc(C=Cc2cc(C(=O)O)c3ccccc3n2)cc1OC(F)F [CBK296953] | 98.3692
CCc1ccc(NC(=O)CNc2cc(C)ccc2OC)cc1 [CBK297553] | 95.4212
CCC(=O)N1CCCc2cc(C(O)CN3CCCCC3)ccc21 (stereo not drawn) [CBK282130] | 93.7366
Cc1cc(C)n(C(C)CNC(=O)C(C)Cn2cccn2)n1 (stereo not drawn) [CBK281639] | 91.6022
CCN(Cc1ccc(C#N)cc1F)C(=O)Nc1cnn(CC)c1 [CBK305702] | 71.9583

SMILES | % of control remaining
O=C(Nc1ncccn1)C1CCCCC1 [CBK027567] | 106.945
Fc1ccc(-c2cncc(NCCCN3CCOCC3)n2)c(F)c1 [CBK065867] | 81.0745
O=[N+]([O-])c1cc(/C=N/Nc2nc(N3CCOCC3)nc(N3CCOCC3)n2)c(O)c([N+](=O)[O-])c1 [CBK261237] | 98.0184
Nc1ncc(-c2ccc(C(=O)O)cc2)nc1-c1ccc(C(=O)N2CCOCC2)cc1 [CBK084518] | 98.2734
O=C(COc1ccc([N+](=O)[O-])cc1)Nc1ccc2oc(-c3ccc(Br)cc3)nc2c1 [CBK263444] | 81.0512
NC(=O)C1(Cc2cccc(-c3cccs3)c2)CCN(C(=O)CCc2ccccc2)CC1 [CBK285782] | 119.174
FC(F)(F)c1cc(NCCC2CCCCN2)cc(C(F)(F)F)c1 (stereo not drawn) [CBK016963] | 110.29
CC(=O)N[C@H]1C[C@@H](Cc2cc(CN3CCN(c4ccccc4)CC3)on2)C1(C)C [CBK289241] | 85.0334
CCOc1ccc(C(=O)C2=C(O)C(=O)N(CCN(C)C)C2c2cccnc2)cc1Cl (stereo not drawn) [CBK266585] | 110.984
O=C(O)CSc1nnc(C2COc3ccccc3O2)n1-c1ccccc1 (stereo not drawn) [CBK263832] | 82.245
c1ccc2[nH]c(CCCCCc3nc4ccccc4[nH]3)nc2c1 [CBK267694] | 89.8735
CCOC(=O)C1(C2CCCCC2)CCN(C(=O)C(c2ccccc2)c2ccccc2)CC1 [CBK136943] | 61.8504
O=C(O)c1[nH]c2ccccc2c1NS(=O)(=O)c1cc(F)c(Br)cc1F [CBK049885] | 91.6045
CN1CCC[C@H]1C(=O)N1CCCC2(CCN(Cc3ccccc3)C2)C1 (stereo partly drawn) [CBK136901] | 83.7838
COCCn1c(SCc2ccc([N+](=O)[O-])cc2)nc2c([nH]c3ccccc32)c1=O [CBK294415] | 105.423
COc1cc(CN2Cc3cccc(C(=O)O)c3C2=O)cc(OC)c1OC [CBK291227] | 113.498
N#Cc1c(NC(=O)c2ccc(C(=O)O)cc2C(=O)O)sc2c1CCCC2 [CBK262722] | 108.944
COc1ccc(NC(=O)N[C@H]2[C@H](O)[C@@H](N3CCOCC3)[C@@H]3OC[C@H]2O3)cc1 [CBK288820] | 127.776
Cc1cccnc1NC(=O)C1CCCN1S(=O)(=O)c1ccc(Cl)cc1 (stereo not drawn) [CBK269914] | 119.599
COc1cc(Nc2cccc(-c3ccc4ccccc4c3)n2)cc(OC)c1OC [CBK037612] | 80.531
COc1ccc(CNC(=O)CN2CCCC(Cn3cncn3)C2)cc1 (stereo not drawn) [CBK305339] | 89.1319
CC(=O)N1CCC(C(=O)NC(=O)NCc2ccc3c(c2)CCO3)CC1 [CBK034837] | 77.9414
CCOc1cccc(CNc2ccc(N3CCOCC3)c(C(=O)O)c2)c1 [CBK269973] | 96.4169
Cc1n[nH]cc1-c1nsc(Nc2ccccc2)n1 [CBK113680] | 83.538
CC(=O)N1CCCC(c2cc3cccnc3n2CC(=O)N(C)C)C1 (stereo not drawn) [CBK285177] | 101.316
COc1cc([C@@]23CC[C@@H](NC(=O)Nc4cccc(C(F)(F)F)c4F)C[C@@H]2N(C)CC3)ccc1C#N [CBK078562] | 78.3084

SMILES | % of control remaining
CN1CCC(N2CCN(C(=O)c3cnc(-c4ccccn4)nc3C(F)(F)F)CC2)CC1 [CBK149089] | 90.2492
CCOc1ccc(Nc2ncnc3c2cnn3Cc2ccccc2)cc1 [CBK072752] | 91.0818
O=C(CSc1ccc(Cl)cc1)N1CCN(c2ccc([N+](=O)[O-])c(N3CCOCC3)c2)CC1 [CBK269670] | 102.231
Cc1ccc(/C=C2\SC(=S)N(CCCC(=O)N3CCC(Cc4ccccc4)CC3)C2=O)cc1 [CBK264356] | 107.069
O=C(Cc1cccc2ccccc12)Nc1cc(C(=O)O)cc(C(=O)O)c1 [CBK268475] | 123.424
CC1CCc2c(C(=O)N3CC(C)OC(C)C3)csc2C1 (stereo not drawn) [CBK304442] | 65.2702
COc1ccccc1NC(=O)Cn1nc(-c2ccc(C)cc2)ccc1=O [CBK269974] | 87.2478
CO[C@@H]1CO[C@H]2[C@@H]1OC[C@@H]2NC(=O)Nc1cccc(C(F)(F)F)c1 [CBK289461] | 96.2657
Cc1ccc(C(=O)C2(O)CCN(CCCC(c3ccc(F)cc3)c3ccc(F)cc3)CC2)cc1 [CBK025221C] | 1.301
O=C(CC(CN1CCCN(c2ncccn2)CC1)C(=O)O)NCc1ccccc1 (stereo not drawn) [CBK286856] | 90.0437
COc1ccccc1C1(NCc2cnn(C)c2)CCCC1 [CBK282744] | 85.2162
CC(=O)N1CCC[C@H]1Cn1nc(-c2cccs2)ccc1=O [CBK284249] | 75.196
CC1CCN(S(=O)(=O)c2ccc(NC(=O)COc3ccc([N+](=O)[O-])cc3)cc2)CC1 [CBK264994] | 96.4119
C/C(=N\NC(=O)c1nonc1N)c1ccc(Cl)cc1 [CBK025664] | 109.903
COc1ccc(-c2ccccc2)cc1NCc1cc2cc(OC)c(OC)cc2[nH]c1=O [CBK286160] | 90.2172
CCOc1ccc(-c2nc(CC(=O)O)cs2)cc1 [CBK295300] | 126.84
O=C1N=C(NCC2CCCCC2)SC1CC(=O)N1CCCC(O)C1 (stereo not drawn) [CBK067919] | 83.3311
COc1cnc(-c2cc(Cl)cc(Cl)c2)c(NC(C)=O)n1 [CBK145333] | 145.415
CCn1ncc(CN2C3CCC2CC(O)(c2ccccc2F)C3)c1C (stereo not drawn) [CBK282663] | 118.771
O=C(O)c1sccc1Oc1ccc(F)cc1[N+](=O)[O-] [CBK066847] | 95.6723
O=C(OCc1ccccc1)N1CCC(C2OCc3cc(-c4cccc5ncccc45)ccc3O2)CC1 (stereo not drawn) [CBK144644] | 55.9994
CCOC(=O)NC(=O)N1CCC(N2C(=O)OCC2(C)C)CC1 [CBK044179] | 44.2764
C/C(=N/NC(=O)CSc1nc2ccccc2n1C)c1cccc([N+](=O)[O-])c1 [CBK263179] | 68.7083
O=C(CSc1nnc(-c2ccccc2O)n1-c1ccccc1)N1CCc2ccccc21 [CBK268097] | 87.0181
c1cn2cc(-c3ccc(N4CCOCC4)cc3)nc(NCC3CCOCC3)c2n1 [CBK037308] | 170.918
COc1ccccc1NC(=O)C(=O)NCCc1c[nH]c2ccccc12 [CBK266672] | 78.7657
